Measured values reported in the supplement of paper PMC3334620.
In all, about 33,000 sequences were measured (“E-score (-0.5 to 0.5)”: median about -0.056, highest 2% from about 0.38 on). Some of the results follow.

biological target: Stb4 (UniProt P50104); experiment: PBM E-score (8-mer binding enrichment) (E-score (-0.5 to 0.5)); higher = stronger / more preferred TF binding; most listed sequences are background and not binding sites; settings: protein concentration: 200 nM; construct: GST-DNA-binding domain
Experimental: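 Universal 'all 10-mer' protein binding microarrays (Agilent AMADID 015681) probed with GST-tagged S. cerevisiae TFs (full-length or DBD) made by in vitro transcription/translation (PURExpress), about 100-200 nM. Bound TF was detected with fluorescent anti-GST. Each ungapped 8-mer (which stands for itself and its reverse complement) is scored by the PBM enrichment score (E-score), a modified Wilcoxon-Mann-Whitney statistic from -0.5 to +0.5, computed with the Universal PBM Analysis Suite. Scale: above 0.35 generally sequence-specific binding.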

Sequence	PBM E-score
AAACACAC	0.0639
AAGCGATC	0.0964
TAATCCTA	-0.00858
ACCTACAT	8e-05
CGCAAGAG	-0.0844
ACGGTACT	0.0575
GGATAGAC	0.0611
GGGGCTAC	0.0291
CCAAAGTC	-0.224
CGTTTTGC	-0.0381
ATGTGTCC	-0.0365
GGCTGGAA	-0.094
AACTAAGT	-0.0531
GGCCAAGA	-0.145
CGTGAGAG	-0.188
CCCTGCAG	-0.0791
CCTTCACG	-0.096
GCATTACA	-0.121
CAAAAACC	0.0906
CTCGCACA	-0.0638
GCTGGGGA	-0.181
CTGACAGC	-0.101
ACGATCAT	-0.174
CAGACAGA	-0.288
CATCCCAA	-0.165

Sequence	PBM E-score
GGTACGAC	0.079
CACTCCGC	0.0485
ACTTTCAG	-0.114
GCACTCCA	-0.0902
GCCGAGAC	0.392
CATATCTC	-0.0377
CTCGATGC	-0.166
GGCTACTA	0.0929
AGCACACG	-0.159
AAAATAAC	-0.0433
CACGTGAA	-0.156
CGGACATC	0.172
CGCCGAAA	0.34
TATGGAAA	-0.0329
CAGGGTAA	-0.159
CCTACTAG	-0.317
CAGGATCA	-0.204
CGCGGACC	0.204
GGTCAAGA	-0.233
AGTGGATC	0.173
ATATGGCG	0.0558
CGGGATCA	0.291
AAGTACGT	-0.237
ATCGCTTG	-0.295
AGCCCAAT	-0.244

Sequence	PBM E-score
GTCGGCAC	0.361
ACGAATGC	-0.279
ACTTTTCA	-0.359
CCACTGGG	-0.231
CCTTTGTA	-0.186
AGGCAATC	-0.183
GAGATGGC	0.147
GTCCAGAA	-0.0108
CACAGTTC	0.173
CACTTTCG	0.175
CATAGCGA	-0.265
CGTCACCC	0.119
AGGTGGGG	-0.0596
GTCCCTGA	-0.122
AAAATGGC	0.1
CCGGCAAC	0.282
AGGGACGA	-0.112
CAAGTAGA	0.00616
TGCATTAA	-0.0336
TCTTACCA	-0.222
CTAGGAAA	-0.236
CCTTATGC	-0.124
GAGCTATC	0.0487
ATGACTGG	-0.0325
CCGTCCCG	0.366

Sequence	PBM E-score
GCGGCGGA	0.283
ACTTACCA	-0.22
CCTTGGGA	-0.113
TAATAGAA	-0.097
AGTCGAGG	-0.184
ACCCCGAC	0.248
CGGGCTAA	0.157
GAACGAAC	-0.00145
AAAGTCCA	-0.235
AATCCCTA	-0.186
ACTATCCT	-0.0638
AGGGCTAG	-0.142
AGCCTGGA	-0.138
AGGGTCAG	-0.249
AGACAGAC	-0.00021
CTCAACTA	0.179
ATATAGAA	-0.00737
GTAGACTA	-0.0794
TAATGCCA	-0.0954
GCCTCAAC	-0.11
ATACTTAC	0.00871
GAATCAAA	0.0314
CGATGCAG	0.0391
ACTTCCTG	-0.0685
AGTTGTCA	0.0249

Sequence	PBM E-score
TAGACACA	-0.11
TCTATCCA	-0.0645
ATAAGGGG	0.0144
ACTTATCA	-0.126
CCTACCGC	0.018
AGGTGTTC	-0.14
CAGGGGGG	-0.273
AGCTATTG	-0.00991
AAGAAGAA	0.126
GCGATATA	-0.198
ATGTCGCA	-0.259
CGGAACAC	0.367
ATACGCGC	0.036
AGTCGTTG	-0.128
CAGAGGGA	-0.182
TAGCGGAA	0.251
ACAGCTAG	-0.101
ATCCACTG	-0.0434
ACCTTGCT	-0.168
ATATGGAT	-0.226
CGGCACGC	0.247
GGGGATCA	-0.134
ACTTCGGG	0.407
CTGTCTTC	0.00189
CAAAGCAC	-0.0496

Sequence	PBM E-score
AAAGTCCC	0.184
GATAGAGC	-0.0769
TGCCAAAA	-0.0796
AAAGTTCA	0.093
ACTTTACG	-0.0299
GTATTAAC	0.0461
CGTGGGAA	-0.22
AAATTATT	0.134
CCCGAATA	0.397
AAGTAGAC	-0.038
GGGCTTGA	-0.364
CCAATTGC	-0.203
ACACAGGG	-0.0134
CATGGCAA	-0.241
AACCTGAA	-0.171
TGCTGTAA	-0.174
TTCAACAA	-0.00037
CCAACTAG	-0.222
GCCGAACA	0.393
AGGCCGAA	0.274
GACATTAC	0.134
ATGATGAA	0.0986
CACATCCC	0.187
GGCGATAA	-0.00564
CATAGTGG	-0.102

Sequence	PBM E-score
AGAAGCAG	-0.297
GACGAGGA	-0.242
ACAAGGTG	-0.0895
CTCTGGTA	-0.36
AGCCGTGG	0.189
AGATCGTC	-0.252
ACCAACTG	-0.143
TATCGCGA	0.0412
GACTCAAC	-0.0506
ATTTTGAA	-0.0335
AGCAGATA	-0.0258
CTTGCATA	-0.146
GATACAAC	0.0623
ATTTACGG	0.215
CCACTAAC	-0.217
TGCATGAA	-0.0689
CACCGTCG	0.0772
ATTTAGCC	0.16
CCATTTAC	-0.0395
AAAGAGGT	-0.123
ACCACTAT	-0.0547
ACCCAGCG	-0.0996
